Source: PubChem BioAssay AID493208 (National Center for Advancing Translational Sciences (NCATS), 2011)
Out of some 44,000 compounds screened, about 340 (0.77%) were called active. Another 5% or so got no clear call; they are omitted. Calls come from the whole dose curve; as a rule, active = well fitted inhibition curve with a large enough effect; inconclusive = small, poorly fitted or top-dose-only effect; inactive = flat fitted curve, though single readings scatter. The list shows a part of the results.

Test: Acumen qHTS Assay for Inhibitors of the mTORC1 Signaling Pathway in MEF (Tsc2-/-, p53-/-) Cells: Sytravon; note: nearly all actives have a fitted effect of over 50% in size;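 for activity change, negative = inhibition: plate controls were DMSO for no effect and rapamycin for full effect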
Settings: phospho-rpS6 immunofluorescence/PI, 24 h; series mostly up to 38.3 µM; activity change, negative = inhibition: at the top concentration
Procedure, shortened: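 Tsc2-/-, p53-/- mouse embryonic fibroblasts (empty-vector line) exposed to compound 24 hrs at 37 C, fixed, immunostained for phospho-rpS6 and counterstained with propidium iodide. Acumen laser scanning gives % positive cells from Alexa 488/PI ratio, thresholded using 7.5 nM rapamycin; PI count gives viability.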
Potency is the fitted concentration of half-maximal effect.

SMILES	activity change, negative = inhibition	Potency
Cc1cc(C)cc(NS(=O)(=O)c2ccc3c(c2)CCCN3C(=O)C2CCC2)c1	inactive: -0.272%	
COc1ccc(-n2ncc(C(=O)N3CCc4ccccc4C3)c2C2CCN(C(=O)OC(C)(C)C)CC2)cc1	inactive: -1.91%	
CCc1ccc2oc(C(=O)Nc3nonc3CC)c(C)c2c1	inactive: -2.85%	
Cc1oc2ncn(C)c(=O)c2c1C(=O)NCCCN1CCCC(C)C1 (stereo unspecified)	inactive: 1.65%	
O=C(Nc1ccc(Br)cc1F)c1ncoc1-c1ccco1	inactive: 1.83%	
COc1ccc(CNC(=O)CN(c2cc(C)cc(C)c2)S(=O)(=O)c2c(C)[nH]c(=O)[nH]c2=O)cc1	inactive: -1.43%	
COc1ccc(-c2cc(C(F)(F)F)n3nc(C(=O)NCC45CC6CC(CC(C6)C4)C5)cc3n2)cc1	inactive: -11.4%	
O=C(COc1ccccc1)N(Cc1cccnc1)c1nc2ccc(F)cc2s1	inactive: 2.2%	
CCOc1cc(-c2nc(-c3ccc(Br)cc3)no2)cc(OCC)c1OCC	inactive: 2.59%	
O=C(CN1C(=O)COc2ccc(S(=O)(=O)N3CCOCC3)cc21)N1CCN(c2ccccc2)CC1	inactive: -28.9%	
COCCCNC(=O)c1ccc2c(=O)n(Cc3ccc(OC)cc3)c(=O)[nH]c2c1	inactive: -17.3%	
Cc1nc(-c2ccc(C)c(S(=O)(=O)N3CCC(C(=O)NCc4ccc(Cl)cc4)CC3)c2)no1	inactive: -1.64%	
COc1ccc(CCNC(=O)C2CCCN(c3nc4c(C)cc(C)cc4s3)C2)cc1OC (stereo unspecified)	inactive: -4.67%	
COc1ccc(C2=C(C)C(=O)N(Cc3ccc(C(=O)NCc4ccc(C)cc4)cc3)S2(=O)=O)cc1	inactive: 0.152%	
Cc1ccc(S(=O)(=O)C(CNC(=O)c2ccccc2F)c2cccs2)cc1 (stereo unspecified)	inactive: 0.0346%	
Cc1cccc(CSc2nc3c(c(=O)[nH]2)C(c2cccc(O)c2)CC(=O)N3)c1 (stereo unspecified)	inactive: -0.356%	
CCOC(=O)c1c(NC(=O)c2cc(C(C)C)on2)sc(C)c1C	inactive: -10.3%	
CCCCC(CC)CNC(=O)c1ccc2c(=O)n(Cc3ccc(OC)cc3)c(=O)[nH]c2c1 (stereo unspecified)	inactive: -24%	
Cn1nc(C(=O)NCc2ccc(Cl)cc2)c2c1-c1ccccc1SC2	inactive: 1.19%	
Cc1cc(=O)n2nc(N3CCC(C(=O)Nc4ccc(C)c(Cl)c4)CC3)sc2n1	inactive: 0.689%	
Cc1ccc(N(Cc2cccs2)C(=O)c2ccc(Br)o2)cc1	inactive: 0.147%	
COc1ccc(CNC(=O)Cc2c(C)c3c(cc(C)c4c(C)c(C)oc43)oc2=O)cc1	inactive: 0.587%	
CCSc1ncc(Cl)c(C(=O)Nc2nc3ccc(OC)cc3s2)n1	inactive: 3.69%	
CCc1nonc1NC(=O)c1oc2ccccc2c1C	inactive: -3.89%	

SMILES	activity change, negative = inhibition	Potency
COc1ccc(CNC(=O)CCS(=O)(=O)c2ccc3c(c2)oc(=O)n3C)cc1	inactive: 6.72%	
Cc1ccc(CNC(=O)c2ccc3c(O)c(S(=O)(=O)c4ccccc4)c(=O)[nH]c3c2)cc1	inactive: -7.6%	
CCOC(=O)N1CCC(NC(=O)c2ccc3c(c2)N(Cc2ccc(F)cc2)C(=O)c2ccccc2S3(=O)=O)CC1	inactive: 2.01%	
CCOc1ccc(NC(=O)C(NS(=O)(=O)c2ccc3c(c2)CCN3C(C)=O)C(C)C)cc1 (stereo unspecified)	inactive: 0.618%	
CCOc1ccccc1NC(=O)c1nnn(CC(=O)Nc2ccc(OC)c(OC)c2)c1N	inactive: 2.82%	
COc1ccc(OC)c(C(C)NC(=O)Cn2c(=O)cc(C)c3c(C)nn(-c4ccc(C)cc4)c32)c1 (stereo unspecified)	inactive: 2.69%	
Cc1ccc(C)c(N2CCN(Cc3csc(C)c3C)CC2)c1	inactive: 2.05%	
COc1ccccc1-c1cc(C(=O)N2CCCCC2C)no1 (stereo unspecified)	inactive: -5.9%	
Nc1c(-c2nc(-c3cccs3)no2)nnn1-c1cccc(Cl)c1	inactive: 0.534%	
COc1ccc(CNC(=O)c2nn(-c3ccccc3C)nc2CO)cc1	inactive: 0.175%	
CCc1ccc(Nc2ncnc3c2cnn3-c2cc(Cl)ccc2C)cc1	inactive: -15.3%	
COc1cccc(CNC(=O)C(NS(=O)(=O)c2ccc3c(c2)CCN3C(C)=O)C(C)C)c1 (stereo unspecified)	inactive: -12.2%	
CCn1cc(C(=O)OCC(=O)Nc2ccc(F)cc2F)c(=O)c2ccc(C)nc21	inactive: 5.35%	
COC(=O)c1ccc(Cn2c(=O)cc(C(F)(F)F)c3c(C)nn(C)c32)cc1	inactive: 0.028%	
CCCn1c2ccccc2c2cnn(CC(=O)NCCc3ccccc3)c(=O)c21	inactive: 3.69%	
CCOc1ccc(S(=O)(=O)N(CC(=O)NCCSc2ccccc2)c2ccccc2)cc1	inactive: -4.18%	
O=C(Cn1c2ncccc2c(=O)n1-c1ccccc1)Nc1ccc(F)c(F)c1	inactive: -13.9%	
Cc1ccccc1Cn1c(=O)n(CCc2ccccc2)c(=O)c2ccccc21	inactive: -2.06%	
CCc1ccccc1NC(=O)NCc1ccc2c(c1)CCN2C(=O)c1ccccc1	inactive: -7.05%	
O=C(Nc1ccccc1C(=O)OCc1cc(=O)n2c3c(sc2n1)CCCC3)c1cccc(Cl)c1	inactive: 0%	
CCCn1ccc2c(OCC(=O)NCc3ccccc3Cl)cccc2c1=O	inactive: 1.81%	
O=C(CSc1nccn1Cc1ccccc1)NCc1ccccc1Cl	inactive: -20.5%	
Cc1cc(C)nc(NS(=O)(=O)c2ccc(NC(=O)COc3ccc(C(C)(C)C)cc3)cc2)n1	inactive: -10.6%	
CCOC(=O)CC(NC(=O)N1CCC(CN2CCC(C)CC2)CC1)c1ccccc1 (stereo unspecified)	inactive: -0.0457%	

SMILES	activity change, negative = inhibition	Potency
CC(C)Cn1cc(NC(=O)N2CCN(c3ccccc3F)CC2)c2ccccc2c1=O	inactive: -2.87%	
Cc1cccc(C)c1Nc1c(-c2ccsc2)nc2ccc(Cl)cn12	inactive: -14.1%	
COc1ccc(OC)c(CCNC(=O)c2cnn(-c3ccccc3)c2C2CCN(C(=O)OC(C)(C)C)CC2)c1	inactive: -3.56%	
COc1ccc(-c2cn3nc(N4CCCC(C(=O)NCc5ccccc5Cl)C4)sc3n2)cc1 (stereo unspecified)	inactive: 2.19%	
Cc1cccc(CNC(=O)CCn2ccc3cc(S(=O)(=O)N4CCCC4)ccc32)c1	inactive: -6.77%	
COc1cc(OC)cc(N2CCN(S(=O)(=O)c3ccc(-n4cnnn4)cc3)CC2)c1	inactive: -3.74%	
O=c1c(N2CCN(c3cccc(C(F)(F)F)c3)CC2)csc2ccc(Cl)cc12	inactive: 2.58%	
Cc1ccccc1CSc1nc2c(sc3ccccc32)c(=O)n1CCCOC(C)C	inactive: 1.22%	
COC(=O)c1cc2oc3ccccc3c2n1Cc1cc(C)ccc1C	inactive: -0.285%	
Cc1nn(C)c2c1c(-c1ccccc1)cc(=O)n2C(C)C(=O)NCc1ccc(F)cc1 (stereo unspecified)	inactive: 3.77%	
O=C1CC(c2ccccc2)Cc2[nH]c(=O)c(-c3nc(-c4ccc(Cl)cc4)cs3)cc21 (stereo unspecified)		active: 5.85 µM
CCN1CCN(C(c2cccc(F)c2)c2c(O)cc(C)n(Cc3ccco3)c2=O)CC1 (stereo unspecified)	inactive: 10.7%	
CCSc1nnc2c(n1)OC(CC)N(C(C)=O)c1ccccc1-2 (stereo unspecified)	inactive: -0.189%	
Cc1ccc(-n2nnnc2CNC(=O)C(C)C)cc1C	inactive: -0.614%	
CC(=O)c1ccc(N2CCN(S(=O)(=O)c3ccc4[nH]c5c(c4c3)CCCC5)CC2)cc1	inactive: 0.534%	
O=C(NCCC1=CCCCC1)c1ccc2c(c1)ncn2-c1ccc(F)c(F)c1	inactive: -1.81%	
O=C(NCc1cccc(F)c1)c1cccc(NC(=O)c2nsc3ccccc23)c1	inactive: -8.55%	
COc1ccc(OC)c(C2c3c(oc4ccc(C)cc4c3=O)C(=O)N2CCCN(C)C)c1 (stereo unspecified)	inactive: -1.36%	
CCc1ccc(Nc2nc(N)nc(CSc3nc4ccccc4s3)n2)cc1	inactive: -11.1%	
CCN(Cc1ccccc1)Cc1c(O)ccc2c(=O)c(-c3ccccc3Cl)c(C(F)(F)F)oc12	inactive: -0.412%	
CC(=O)Nc1cccc(NC(=O)c2c(-c3ccccc3)c(-c3ccccc3)nn(C)c2=O)c1	inactive: 5.66%	
CCc1ccccc1NS(=O)(=O)c1ccc2c(c1)OCC(C(=O)N1CCCC1)O2 (stereo unspecified)	inactive: -2.08%	
CCCN(CCC)C(=O)CSc1nc2sc3c(c2c(=O)n1-c1ccccc1)CCN(C(C)=O)C3	inactive: 0%	
CCOCc1cc(CN2CCN(c3cccc(Cl)c3)CC2)c(O)c2ncccc12		active: 11.7 µM

SMILES	activity change, negative = inhibition	Potency
COc1cccc(CNC(=O)C2CCN(c3nnc(-n4c(C)ccc4C)s3)CC2)c1	inactive: 0.985%	
Cc1cccc(-n2ncc3c(NC4CCCC4)ncnc32)c1	inactive: -1.07%	
CCc1ccc(-n2nc3ccc(NC(=O)c4ccc(C#N)cc4F)cc3n2)cc1	inactive: -0.702%	
Fc1ccc(-c2cn3cc(Cc4ccc(Cl)cc4)sc3n2)cc1	inactive: -20.3%	
CCC(CC)C(=O)Nc1cccc(-c2nc3ccccc3s2)c1	inactive: 0%	
CCOc1ccc(-c2nnc(SCC(=O)NCc3ccc(C)cc3)nc2-c2ccc(OCC)cc2)cc1	inactive: -7.64%	
CCOc1ccccc1C1CC(=O)Oc2c1c(=O)n(C)c1ccccc21 (stereo unspecified)	inactive: -8.45%	
Cc1ccc(Cl)cc1NC(=O)Cn1c(=O)c2ccccc2n2nncc12	inactive: -3.51%	
Cc1ccccc1-c1nc2cc(NC(=O)COc3ccc(F)cc3)ccc2o1	inactive: -10.5%	
CC1=C(C(=O)Nc2ccc(C)cc2C)C(c2ccccc2)n2ncc(C(=O)Nc3ccccc3)c2N1 (stereo unspecified)	inactive: -7.16%	
CCOC(=O)c1c(-c2ccccc2)csc1NC(=O)c1cc(-c2ccc(Cl)cc2)on1	inactive: -8.43%	
Cc1c(CC(=O)NCCc2ccc(Cl)cc2)c(=O)oc2c(C)c3occ(C(C)(C)C)c3cc12	inactive: -1.4%	
Cc1ccc(NC(=O)C2CCCN(S(=O)(=O)c3cccc4cccnc34)C2)c(C)c1 (stereo unspecified)	inactive: -18.6%	
CCOC(=O)c1sc(NC(=O)c2cc(-c3ccc(F)cc3)on2)c(C(=O)OCC)c1C	inactive: -0.526%	
COC(=O)c1ccc2c(=O)n(CCCCCC(=O)N3CCN(c4ccc(OC)cc4)CC3)c(=O)[nH]c2c1	inactive: -1.18%	
CCOC(=O)CSc1nc2ccc(NC(=O)c3ccccc3F)cc2s1	inactive: -1.2%	
CCS(=O)(=O)c1nc(S(=O)(=O)c2ccc(Cl)cc2)c(NCc2ccccc2Cl)s1	inactive: -15.5%	
CCOc1ccc(NC(=O)CN(C)S(=O)(=O)c2cnc[nH]2)cc1	inactive: 0.0857%	
O=C(CSc1nnc2[nH]c(=O)cc(-c3ccccc3)n12)Nc1cc(C(F)(F)F)ccc1Cl	inactive: -6.65%	
COc1ccc(NC(=O)NC(C)c2c(-n3cccc3)sc3c2CCN(C)C3)c(OC)c1 (stereo unspecified)	inactive: 0.156%	
Nc1c(C(=O)Nc2cccc(C(F)(F)F)c2)c2ccccn2c1C(=O)c1ccccc1	inactive: -3.76%	
CC(=O)Nc1nonc1-c1nc2ccccc2n1Cc1ccccc1Br	inactive: -24%	
COc1cc2c(cc1OC)C(COc1ccc3c(C)cc(=O)oc3c1)N(C(=O)CC(C)C)CC2 (stereo unspecified)	inactive: -14.4%	
Cc1ccc2oc(-c3cc(NC(=O)/C=C/c4ccco4)ccc3Cl)nc2c1	inactive: 12.5%	
